Molecules are shown by their SMILES. Among all 310,000 compounds or so, about 14,000 (4.5%) showed an effect of 50% or more. Effects have a minus sign here. The list shows a part of the results.
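Note: peak tail current of the secondary pulse compared with the same well before compound.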

In the test the target is human ether-à-go-go-related gene (hERG) potassium channel (human, UniProt Q12809). Kind of test: primary screen, population patch clamp on CHO cells stably expressing hERG.
Sequence of human ether-à-go-go-related gene (hERG) potassium channel (Q12809 whole entry, looked up): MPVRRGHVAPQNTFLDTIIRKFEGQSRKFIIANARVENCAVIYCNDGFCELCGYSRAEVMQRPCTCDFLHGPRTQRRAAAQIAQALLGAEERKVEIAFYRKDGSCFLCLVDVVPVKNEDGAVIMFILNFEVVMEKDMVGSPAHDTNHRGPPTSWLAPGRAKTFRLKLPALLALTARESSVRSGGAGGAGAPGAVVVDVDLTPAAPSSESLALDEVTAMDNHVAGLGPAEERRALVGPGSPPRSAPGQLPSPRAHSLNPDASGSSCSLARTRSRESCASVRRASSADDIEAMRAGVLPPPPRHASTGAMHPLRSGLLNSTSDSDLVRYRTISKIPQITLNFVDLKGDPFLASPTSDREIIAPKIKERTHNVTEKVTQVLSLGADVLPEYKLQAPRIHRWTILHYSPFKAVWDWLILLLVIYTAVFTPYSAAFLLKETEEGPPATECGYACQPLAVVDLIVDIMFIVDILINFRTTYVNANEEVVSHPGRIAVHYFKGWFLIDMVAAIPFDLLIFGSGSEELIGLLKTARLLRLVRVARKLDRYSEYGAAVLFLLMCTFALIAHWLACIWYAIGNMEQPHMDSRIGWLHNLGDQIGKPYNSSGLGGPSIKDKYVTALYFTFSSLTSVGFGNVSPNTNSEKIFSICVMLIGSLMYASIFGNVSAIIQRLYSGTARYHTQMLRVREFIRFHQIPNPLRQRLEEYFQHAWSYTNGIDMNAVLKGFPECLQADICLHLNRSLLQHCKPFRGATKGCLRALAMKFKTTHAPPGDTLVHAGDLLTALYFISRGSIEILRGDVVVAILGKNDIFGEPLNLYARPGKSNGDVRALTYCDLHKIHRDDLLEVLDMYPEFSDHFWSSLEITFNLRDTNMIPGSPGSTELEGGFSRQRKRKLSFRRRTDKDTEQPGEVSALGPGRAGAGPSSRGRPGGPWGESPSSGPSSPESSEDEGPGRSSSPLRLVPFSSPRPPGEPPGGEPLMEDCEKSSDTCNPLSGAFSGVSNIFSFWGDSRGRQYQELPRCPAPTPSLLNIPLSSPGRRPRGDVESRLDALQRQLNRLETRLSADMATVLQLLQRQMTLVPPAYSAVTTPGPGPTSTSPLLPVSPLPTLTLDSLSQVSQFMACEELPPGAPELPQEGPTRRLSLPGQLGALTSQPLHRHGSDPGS
In the case of `COc1ccc(OCC(=O)N2c3ccc(C)cc3C3CN(C)CCC32)cc1` (stereo not shown), the “hERG current change (%, negative = inhibition) at 10uM” value is recorded as -5.12%.

On to `COc1ccccc1CNc1ncnc2c1nnn2Cc1ccccc1`, for which the “hERG current change (%, negative = inhibition) at 10uM” value turned out to be 3.85%.

Take `COc1ccc(NC(=O)Cc2nnc(SCC(=O)c3ccccc3)n2C)cc1`: the “hERG current change (%, negative = inhibition) at 10uM” value worked out at 7.09%.

`CC(C)C(=O)Nc1csc(C(F)(F)F)c1-c1ccccc1`: the “hERG current change (%, negative = inhibition) at 10uM” value is given as -11.3%.

With `Cc1cc(C)c2c(=O)n(CC(=O)NCCCN3CCOCC3)sc2n1`, the “hERG current change (%, negative = inhibition) at 10uM” value turned out to be 11.4%.

`CCOC1OC2C(CO)OC(n3cnc4c(N)ncnc43)C2O1` (stereo not shown): the “hERG current change (%, negative = inhibition) at 10uM” value was -1.52%.

Regarding `Cc1onc(-c2ccccc2Cl)c1C(=O)NCCN1Cc2ccccc2C1=O`, the “hERG current change (%, negative = inhibition) at 10uM” value was -7.66%.

As to `CCC1(c2ccc(F)cc2)NC(=O)N(CC(=O)Nc2cc(C)on2)C1=O` (stereo not shown), the “hERG current change (%, negative = inhibition) at 10uM” value amounted to 8.19%.

`CCS(=O)(=O)NCCc1csc(-c2ccc(OC)c(OC)c2)n1`: the “hERG current change (%, negative = inhibition) at 10uM” value was found to be 6.6%.

In the case of `O=C(O)C1CC=CCC1C(=O)NC1CCCCC1` (stereo not shown), the “hERG current change (%, negative = inhibition) at 10uM” value is 10.1%.

`CC(C)(C)c1ccc(C(=O)NCC(=O)OCC(=O)N2CCCC2)cc1`: the “hERG current change (%, negative = inhibition) at 10uM” value is given as 4.86%.

As for `COc1ccc(Br)cc1CNC(=O)C1CCN(C(=O)N(C)C)CC1`, the “hERG current change (%, negative = inhibition) at 10uM” value was -6.15%.

Consider `CCCOc1ccc(C(=O)C(CN2CCCC2)c2ccccc2)cc1.Cl` (stereo not shown), for which the “hERG current change (%, negative = inhibition) at 10uM” value is -65.8%.

For the molecule `COc1ccc(C(=O)Cn2nnc(-c3ccccc3-n3cnnn3)n2)cc1`, the “hERG current change (%, negative = inhibition) at 10uM” value is listed as -0.555%.

`CCCCc1c(O)c2ccccc2n(CCCC)c1=O`: the “hERG current change (%, negative = inhibition) at 10uM” value was 8.32%.

For the molecule `O=C(N/N=C/c1ccoc1)c1ccc(Br)cc1`, the “hERG current change (%, negative = inhibition) at 10uM” value worked out at 9.74%.

Consider `NC(=O)c1ncc(C(F)(F)F)cc1Oc1cccnc1`, for which the “hERG current change (%, negative = inhibition) at 10uM” value came out at 20.5%.

For `Cc1cccc(-c2noc(CCCC(=O)NC3CCCC3)n2)c1`, the “hERG current change (%, negative = inhibition) at 10uM” value is listed as 3.86%.

As to `CCC(=O)c1cn(CC(=O)Nc2ccccc2)c2ccccc12`, the “hERG current change (%, negative = inhibition) at 10uM” value turned out to be 20.6%.

As to `COc1ccc(C2CCCN2C(=S)Nc2ccc(C)c(C)c2)cc1OC` (stereo not shown), the “hERG current change (%, negative = inhibition) at 10uM” value is -12.8%.

Consider `CCN(CC(=O)Nc1ccc(NC(C)=O)cc1)C(=O)c1ccc(=O)n(C)n1`, for which the “hERG current change (%, negative = inhibition) at 10uM” value came out at 2.47%.

Consider `CCOC(=O)Nc1cccc2ccccc12`, for which the “hERG current change (%, negative = inhibition) at 10uM” value was determined as 1.14%.

As for `CN1/C(=C\C(=O)COC(=O)C2COc3ccccc3O2)C(C)(C)c2ccccc21` (stereo not shown), the “hERG current change (%, negative = inhibition) at 10uM” value is on record as 9.13%.

As to `CC(C)c1ccc(O)c(NC(=O)c2cccnc2)c1`, the “hERG current change (%, negative = inhibition) at 10uM” value stood at 6.07%.

Consider `COc1ccc(/C=[N+](\[O-])C2N(c3ccccc3)C(=S)SC2(C)C)cc1OC` (stereo not shown), for which the “hERG current change (%, negative = inhibition) at 10uM” value is reported as 8.73%.

Turning to `Cc1ccc(N2N=C(C(=O)O)CCC2=O)cc1Cl`, the “hERG current change (%, negative = inhibition) at 10uM” value is recorded as -45.2%.

`CCOC(=O)[C@H]1[C@H]2COc3ccc(OC)cc3[C@@H]2N2C(=O)c3cc(C)ccc3NC(=O)[C@@]12C`: the “hERG current change (%, negative = inhibition) at 10uM” value was -27.5%.

As to `CC(=O)c1cccc(N(C(=O)CNC(=O)c2ccco2)C(C(=O)NC2CCCC2)c2ccc(C)o2)c1` (stereo not shown), the “hERG current change (%, negative = inhibition) at 10uM” value was determined as 6.93%.

As for `COc1ccc2[nH]c(C)c(CCNCc3cc(OC)c(OC)c(OC)c3)c2c1`, the “hERG current change (%, negative = inhibition) at 10uM” value was found to be 4.3%.

In the case of `O=C(COC(=O)c1ccc2c(c1)OCCO2)NCc1ccccc1`, the “hERG current change (%, negative = inhibition) at 10uM” value was found to be 18.4%.

Regarding `CN(C)S(=O)(=O)c1cccc(C(=O)OCC(=O)N2c3ccccc3NC(=O)C2(C)C)c1`, the “hERG current change (%, negative = inhibition) at 10uM” value turned out to be 4.95%.

Regarding `CC(C)(C)NC(=O)COC(=O)c1ccccc1Oc1ccccc1`, the “hERG current change (%, negative = inhibition) at 10uM” value is recorded as -1.2%.

As for `Cc1ccc(S(=O)(=O)N2CCOCC2)cc1NC(=O)COC(=O)c1n[nH]c(=O)c2ccccc12`, the “hERG current change (%, negative = inhibition) at 10uM” value is on record as 4.51%.

For the molecule `CCCc1cc(=O)oc2cc(OCc3ccc(C(=O)O)cc3)ccc12`, the “hERG current change (%, negative = inhibition) at 10uM” value is 20.8%.

As for `CCOc1ccc(-c2c(=O)n(OCc3nc4ccccc4[nH]3)c3ccccc3[n+]2[O-])cc1`, the “hERG current change (%, negative = inhibition) at 10uM” value is listed as -9.25%.

With `O=C(N/N=C1\CCCc2ccccc21)c1ccccc1[N+](=O)[O-]`, the “hERG current change (%, negative = inhibition) at 10uM” value is given as 1.85%.

Consider `COc1ccc(OC)c2c1sc(=NC(=O)C1CCCCC1)n2C`, for which the “hERG current change (%, negative = inhibition) at 10uM” value is given as -7.43%.

On to `O=C1c2cc3ccccc3c(-c3ccccc3)c2C(=O)N1c1ccccn1`, for which the “hERG current change (%, negative = inhibition) at 10uM” value came to 2.17%.

With `O=C(NCCc1ccc(Cl)cc1)C1CCCN1C(=O)Nc1ccccc1` (stereo not shown), the “hERG current change (%, negative = inhibition) at 10uM” value is on record as -11.5%.

For `Cn1cnnc1SCC(=O)Nc1cc(C(F)(F)F)ccc1N1CCOCC1`, the “hERG current change (%, negative = inhibition) at 10uM” value is listed as -15.6%.

Regarding `Cc1nn(Cc2ccc(Cl)cc2)c(C)c1NC(=O)c1cc(-c2ccco2)on1`, the “hERG current change (%, negative = inhibition) at 10uM” value was -5.66%.

In the case of `Cc1ccc(N(Cc2ccco2)C(=O)c2cccc(S(=O)(=O)N(C)C)c2)cc1`, the “hERG current change (%, negative = inhibition) at 10uM” value is recorded as -21.5%.

Turning to `O=C(Cn1c(=O)oc2cc(S(=O)(=O)N3CCOCC3)ccc21)N1CCc2ccccc2C1`, the “hERG current change (%, negative = inhibition) at 10uM” value came out at 4.76%.

As for `O=C(O)c1ccc2c(c1)C(=O)N(c1ccc([N+](=O)[O-])cn1)C2=O`, the “hERG current change (%, negative = inhibition) at 10uM” value was determined as 19.5%.

As for `COc1ccccc1CNC(=O)C(NC(=O)c1ccccc1C)C(C)C` (stereo not shown), the “hERG current change (%, negative = inhibition) at 10uM” value was determined as 10.2%.

Consider `CC(=O)NCC(=O)NC(C(=O)Nc1ccc2c(c1)OCCO2)c1ccc(C)cc1` (stereo not shown), for which the “hERG current change (%, negative = inhibition) at 10uM” value came to 16.8%.

As for `COc1ccc(N2C(=O)CC(c3ccc([N+](=O)[O-])cc3)C2=O)cc1` (stereo not shown), the “hERG current change (%, negative = inhibition) at 10uM” value is -0.178%.

For the molecule `COc1cc(C(=O)OC(C)C(=O)NC(=O)NC2CCCCC2)ccc1OC(F)F` (stereo not shown), the “hERG current change (%, negative = inhibition) at 10uM” value was -51.2%.

Consider `COc1ccc2nc3oc(C(=O)N4CCN(c5cccc(Cl)c5)CC4)cc3cc2c1`, for which the “hERG current change (%, negative = inhibition) at 10uM” value is -5.8%.

Turning to `COCCn1c(CN(C)Cc2ccccc2)nc2c1c(=O)n(C)c(=O)n2C`, the “hERG current change (%, negative = inhibition) at 10uM” value is on record as -6.15%.

For the molecule `O=C(Nc1ccc(F)cc1)c1ccc(CN2CCc3ccccc3C2)cc1`, the “hERG current change (%, negative = inhibition) at 10uM” value worked out at 7.03%.

As for `COc1cc(OC)c(OC)cc1CN1CCN(c2ccccc2OC)CC1`, the “hERG current change (%, negative = inhibition) at 10uM” value is recorded as -31.1%.

Take `Nc1nnc(SCC(=O)Nc2cccc(S(=O)(=O)N3CCOCC3)c2)s1`: the “hERG current change (%, negative = inhibition) at 10uM” value was found to be 24.1%.

Take `O=S(=O)(c1ccccc1)N1CCCC1c1cccs1` (stereo not shown): the “hERG current change (%, negative = inhibition) at 10uM” value is -2.26%.

Consider `CCn1nc(NC(=O)Cc2ccc(OC)cc2)c2cc3cc(C)ccc3nc21`, for which the “hERG current change (%, negative = inhibition) at 10uM” value was determined as 4.97%.

The record behind these values is article PMC4336329 (PLoS ONE, 2015).
